Measured values taken from publication PMC6919601, “Identification of Plasmodium dipeptidyl aminopeptidase allosteric inhibitors by high throughput screening” (PLoS ONE, 2019).
Hit rate of the full screen: of about 110,000 compounds, about 230 (0.21%) showed an effect of 50% or more. This is one part of the list.

Target: DPAP1 (Plasmodium falciparum, UniProt Q8IIJ9)
Experiment: primary screen, percent inhibition; read by cleavage of a fluorogenic dipeptide substrate; higher = more effect of the substance
Parameters: species or system P. falciparum D10 trophozoite lysates; single well
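Also: 30 min substrate incubation versus DMSO and 10 µM JCP410 controls.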

Sequence of DPAP1 (Q8IIJ9 whole entry, looked up): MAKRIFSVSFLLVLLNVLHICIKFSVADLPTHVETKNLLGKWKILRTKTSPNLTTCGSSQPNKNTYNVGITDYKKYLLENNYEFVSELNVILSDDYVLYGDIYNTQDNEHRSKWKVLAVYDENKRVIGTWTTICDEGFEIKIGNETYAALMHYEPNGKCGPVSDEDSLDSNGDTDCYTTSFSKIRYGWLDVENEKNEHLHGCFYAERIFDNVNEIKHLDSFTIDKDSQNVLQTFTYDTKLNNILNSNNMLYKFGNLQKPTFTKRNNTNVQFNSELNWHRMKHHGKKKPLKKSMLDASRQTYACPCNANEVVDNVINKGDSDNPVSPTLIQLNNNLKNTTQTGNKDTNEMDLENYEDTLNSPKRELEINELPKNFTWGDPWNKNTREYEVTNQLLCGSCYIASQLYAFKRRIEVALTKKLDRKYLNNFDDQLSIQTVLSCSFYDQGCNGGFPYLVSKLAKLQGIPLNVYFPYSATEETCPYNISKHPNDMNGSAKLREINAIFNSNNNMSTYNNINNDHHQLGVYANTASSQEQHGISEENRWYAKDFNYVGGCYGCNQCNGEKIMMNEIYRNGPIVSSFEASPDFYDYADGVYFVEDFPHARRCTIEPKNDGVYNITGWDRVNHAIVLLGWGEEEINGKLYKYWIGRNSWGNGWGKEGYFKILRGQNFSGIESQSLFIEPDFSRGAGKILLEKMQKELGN

SMILES	% Inhibition @ 10 uM [%]
Cc1ccccc1/C=C1\C(=O)NC(=S)N(c2ccc(Cl)cc2)C1=O	-0.0804
CN(C)C1CS(=O)(=O)CC1N(C)C (stereo not drawn)	-11.1
COc1ccc(S(=O)(=O)Nc2cccc(C(C)=O)c2)c(Cl)c1Cl	-2.83
Cc1ccc(NC(=O)CSC2=NC(=O)CC(c3ccccc3)N2)cc1 (stereo not drawn)	-3.9
COc1ccc(C2=C(C)C(=O)OC(c3ccccc3)O2)cc1 (stereo not drawn)	-4.91
O=c1oc2ccc(NS(=O)(=O)c3ccc(F)cc3)cc2s1	0.889
O=C(Cn1ncc2c3ccccc3n(Cc3ccccc3)c2c1=O)N1CCC2(CC1)OCCO2	0.137
CC(C)(C)c1ccccc1OCC(=O)NCc1ccco1	-0.69
Nc1nnc(SCC(=O)NC(c2ccccc2)c2ccccc2)s1	0.587
CN1CCC(O)(c2ccccc2)CC1	-4.35
CCCC(O)(c1ccc(OC)cc1)C(CN(C)C)c1ccccc1 (stereo not drawn)	-3.93
CCOc1ccc(S(=O)(=O)Nc2ccc(Cl)cn2)c(C)c1C	-3.33
O=c1c(N2CCOCC2)nsn1Cc1ccccc1	-3.39
O=C(O)CSc1c2c(nc3cc(C(=O)N4CCN(C5CCCCC5)CC4)ccc13)CCC2	2.74
Cc1nn(-c2ccc(F)cc2)c(O)c1/C=N/c1ccccc1O	-0.759
c1ccc(CCCSc2nccn2Cc2ccccc2)cc1	-0.239
CCC(Sc1ncccc1C(=O)OC(C)C)C(=O)NCc1ccco1 (stereo not drawn)	3.66
COc1ccc(CNC2C3CC4CC(C3)CC2C4)c2ccccc12 (stereo not drawn)	-6.08
CC(C)Oc1ccc(CNC(=O)C2CCCN(S(=O)(=O)N3CCC4(CC3)OCCO4)C2)cc1 (stereo not drawn)	-8.18
Cc1cc(N2CCC(C(=O)Nc3nccs3)CC2)n2nc(C)c(-c3ccc(Cl)cc3)c2n1	-7.53
COc1ccc2ccccc2c1CN1CCCC1CO (stereo not drawn)	-1.97
CCn1cc(C(=O)O)c(=O)c([N+](=O)[O-])c1-c1ccccc1	-2.81
CN1C(=O)C(=Cc2cn(Cc3ccc(Cl)cc3)c3ccccc23)C(=O)N(C)C1=O	23.7
CCN(CC)c1nc2c(C)cccn2c(=O)c1C=C1C(=O)NC(=O)NC1=O	-0.339
CC1CCCC(C)N1CCCNC(=O)C1c2ccccc2C(=O)N1CCc1ccc(Cl)cc1 (stereo not drawn)	0.387
CCOc1ccccc1C1SCC(=O)Nc2c1c(O)nn2C1CCOC(C)(C)C1 (stereo not drawn)	-0.45
Cc1ccc(NC(=O)C(F)(F)F)cc1NC(=O)c1ccc(Cl)cc1Cl	2.23
